Binding data for eight substances are collected here from article PMC1762419.

The chains behind the UniProt entries cited, without tags or fusion partners.
UniProt O15318: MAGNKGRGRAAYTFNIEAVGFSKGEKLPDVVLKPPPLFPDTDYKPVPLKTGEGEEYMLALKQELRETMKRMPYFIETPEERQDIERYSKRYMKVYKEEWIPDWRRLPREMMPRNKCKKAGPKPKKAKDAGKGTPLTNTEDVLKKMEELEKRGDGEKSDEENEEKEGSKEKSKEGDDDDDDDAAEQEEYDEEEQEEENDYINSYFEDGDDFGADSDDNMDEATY
UniProt Q9Y2Y1: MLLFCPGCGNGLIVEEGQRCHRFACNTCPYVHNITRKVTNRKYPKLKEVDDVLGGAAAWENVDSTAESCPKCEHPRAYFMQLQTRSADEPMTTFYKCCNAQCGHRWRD
UniProt P20226: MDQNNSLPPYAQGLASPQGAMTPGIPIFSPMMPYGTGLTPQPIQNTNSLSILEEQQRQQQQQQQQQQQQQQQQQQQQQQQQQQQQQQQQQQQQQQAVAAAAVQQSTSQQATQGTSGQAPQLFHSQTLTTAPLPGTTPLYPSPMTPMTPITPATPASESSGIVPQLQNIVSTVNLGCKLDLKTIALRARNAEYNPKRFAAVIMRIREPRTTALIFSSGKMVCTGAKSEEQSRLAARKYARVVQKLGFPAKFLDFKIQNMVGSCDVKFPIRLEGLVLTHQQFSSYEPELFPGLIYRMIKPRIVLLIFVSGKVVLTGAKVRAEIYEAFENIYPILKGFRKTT
UniProt Q9H1D9: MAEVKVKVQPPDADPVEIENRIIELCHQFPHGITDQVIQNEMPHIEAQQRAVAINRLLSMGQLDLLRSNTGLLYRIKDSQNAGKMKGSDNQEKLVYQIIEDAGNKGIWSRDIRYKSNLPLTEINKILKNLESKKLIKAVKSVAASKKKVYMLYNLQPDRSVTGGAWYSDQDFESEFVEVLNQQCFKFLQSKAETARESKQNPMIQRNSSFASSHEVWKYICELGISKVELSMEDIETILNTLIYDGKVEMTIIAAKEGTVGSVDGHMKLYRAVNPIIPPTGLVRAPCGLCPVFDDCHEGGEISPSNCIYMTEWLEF
UniProt O75575: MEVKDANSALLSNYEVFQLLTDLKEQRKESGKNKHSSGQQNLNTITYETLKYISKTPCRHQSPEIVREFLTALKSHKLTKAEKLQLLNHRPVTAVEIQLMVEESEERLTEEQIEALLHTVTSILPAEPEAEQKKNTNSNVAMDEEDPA
UniProt Q9BUI4: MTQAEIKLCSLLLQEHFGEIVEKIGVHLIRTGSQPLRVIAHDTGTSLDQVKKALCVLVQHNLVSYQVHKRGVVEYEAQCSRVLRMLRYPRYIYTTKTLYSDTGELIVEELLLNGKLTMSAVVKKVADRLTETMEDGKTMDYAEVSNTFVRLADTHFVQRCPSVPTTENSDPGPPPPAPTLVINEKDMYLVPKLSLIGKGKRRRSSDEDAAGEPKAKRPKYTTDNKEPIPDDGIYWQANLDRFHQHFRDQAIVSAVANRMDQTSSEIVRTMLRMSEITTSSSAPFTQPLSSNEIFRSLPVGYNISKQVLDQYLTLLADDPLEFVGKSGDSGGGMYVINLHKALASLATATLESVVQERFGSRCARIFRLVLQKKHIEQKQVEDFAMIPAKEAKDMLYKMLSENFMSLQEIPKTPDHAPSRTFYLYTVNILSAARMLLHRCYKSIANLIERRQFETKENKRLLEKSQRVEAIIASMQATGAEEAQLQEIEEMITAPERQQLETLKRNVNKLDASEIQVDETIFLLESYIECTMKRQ
UniProt O15160: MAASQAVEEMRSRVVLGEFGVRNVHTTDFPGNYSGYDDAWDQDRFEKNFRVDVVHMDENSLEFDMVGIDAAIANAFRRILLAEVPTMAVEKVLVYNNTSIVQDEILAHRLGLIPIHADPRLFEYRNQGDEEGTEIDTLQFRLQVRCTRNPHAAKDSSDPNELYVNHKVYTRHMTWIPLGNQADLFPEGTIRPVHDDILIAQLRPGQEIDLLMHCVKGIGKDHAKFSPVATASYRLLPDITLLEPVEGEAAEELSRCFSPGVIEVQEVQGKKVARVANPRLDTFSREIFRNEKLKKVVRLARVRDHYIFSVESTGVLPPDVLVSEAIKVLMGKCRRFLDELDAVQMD
UniProt P0DPB6: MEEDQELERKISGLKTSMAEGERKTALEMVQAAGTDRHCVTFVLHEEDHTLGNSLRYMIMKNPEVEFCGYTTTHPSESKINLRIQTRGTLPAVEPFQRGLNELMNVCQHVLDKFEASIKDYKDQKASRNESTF

Test [1] has as its target T1, GST-Maf1 (human) (UniProt Q9H063).
T1 sequence: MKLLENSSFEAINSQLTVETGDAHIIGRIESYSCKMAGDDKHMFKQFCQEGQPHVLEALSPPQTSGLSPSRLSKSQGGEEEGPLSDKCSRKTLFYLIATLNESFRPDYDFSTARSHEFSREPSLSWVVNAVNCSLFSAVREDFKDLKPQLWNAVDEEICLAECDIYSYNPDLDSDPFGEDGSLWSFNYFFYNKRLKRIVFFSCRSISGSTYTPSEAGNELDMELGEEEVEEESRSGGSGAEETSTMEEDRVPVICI

Test [2] addresses T1, GST-Maf1 (human). The test can be described thus: pull-down; as a3, but GST-Maf1 and in vitro translated proteins treated with RNase A (100 µg) or DNase I (4 U) for 20 min at 30°C before the binding reaction; only the target purified.
The target of test [3] is T1, GST-Maf1 (human). The test can be described thus: pull-down; GST pull-down with full-length GST-Maf1 in the experiment on truncated versions; data not shown; only the target purified.
In test [4] the target is T2, GST-Maf1^1-81 (human) (UniProt Q9H063).
T2 sequence: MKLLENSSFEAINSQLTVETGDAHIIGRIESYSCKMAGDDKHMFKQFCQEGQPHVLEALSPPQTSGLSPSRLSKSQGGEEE

Test [5] addresses T1, GST-Maf1 (human). This is another data set of the same source.

Where two headings read alike, the source gives them in different places. These are yes or no findings as the source states them, for the method shown. In cells and extracts the contact can be indirect. Some results given as binding are weak or reduced against the parent protein; the word gives no strength. Sequences can lack the tags named with a protein.

“RPC7 (in vitro translated) (from UniProt O15318 1-223)”: the binding entry in test [1] is reported as “no binding”.
Consider “RPC10 (in vitro translated) (from UniProt Q9Y2Y1 1-108)”, for which the binding result in test [1] was “no binding”.
For “TBP (in vitro translated) (from UniProt P20226 1-339)”, in test [1], the binding result is “no binding”.
Consider “RPC6 (in vitro translated) (from UniProt Q9H1D9 1-316)”, for which the binding result in test [1] was “no binding”.
With “RPC9 (in vitro translated) (from UniProt O75575 1-148)”, in test [1], the binding result was “no binding”.
Same read-out and setting: with “RPC3 (in vitro translated) (from UniProt Q9BUI4 1-534)” the entry was “no binding”; with “RPAC1 (in vitro translated) (from UniProt O15160 1-346)”, “no binding”.
Turning to “RPAC2 (in vitro translated) (from UniProt P0DPB6 1-133)”, the binding result in test [2], in test [3], in test [4] and in test [5] was “binds” throughout.
